Measured values taken from the RNAGym collection of RNA variant scans (doi:10.7554/elife.90254).
The source gives no read counts; variants with many changes may rest on few reads.

B1: LINE1-mini (parent)
chain: GGCAGAGCUCAACACAGCGUGGCAAAGUGGCUGUGGCUAGACUGCC

Variants of: B1
Experiment: self-cleavage, relative activity (ratio to wild type); higher = more cleavage; in vitro, sequencing; the parent is a self-cleaving ribozyme

Row | Variant | self-cleavage
1 | GGCAAAGCUCAACACAGCUUGGCAAAGUGGCUAUGGCUAGACUGCC [G5A G19U G33A] | 0.33
2 | GGCAAAGCUCAACACAGCUUGGCAAAGUGGCUGUGGCUAGACUCCC [G5A G19U G44C] | 0.04
3 | GGCAAAGCUCAACACAGCUCGGUAAAGUGGCUGUCGCUAGACUGCC [G5A G19U U20C C23U G35C] | 0.05
4 | GGCAAAGCUCAACACAGCGUAGCAAAGUGGCUGUGGCUAGACCGCC [G5A G21A U43C] | 0.1
5 | GGCAAAGCUCAACACAGCGUCGCAAAGUGGCUGUGGCUACACUGCC [G5A G21C G40C] | 0.05
6 | GGCAAAGCUCAACACAGCGUUGCCAAGUGGCUGUGGCUAGACUGCU [G5A G21U A24C C46U] | 0.09
7 | GGCAAAGCUCAACACAGCGUUGCAAAGUGGCUGUGGCUCGACUGCC [G5A G21U A39C] | 0.07
8 | GGCAAAGCUCAACACAGCGUUGCAAAGUGGCUGUGGCUAGUCUGCC [G5A G21U A41U] | 0.14
9 | GGCAAAGCUCAACACAGCGUUGGAAAGUGGCUGUGGCUAGACAGCC [G5A G21U C23G U43A] | 0.01
10 | GGCAAAGCUCAACACAGCGUUGCAAAUUGGCUGUGGCUAGACAGCC [G5A G21U G27U U43A] | 0.03
11 | GGCAAAGCUCAACACAGCGUUGCAAAGUAGCUGUGGCUAGACUGCC [G5A G21U G29A] | 0.13
12 | GGCAAAGCUCAACACAGCGUUGCAAAGUGACUGUGGCUAGACUGCC [G5A G21U G30A] | 0.64
13 | GGCAAAGCUCAACACAGCGUUGCAAAGUGUAUGUGGCUAGACUGCC [G5A G21U G30U C31A] | 0.03
14 | GGCAAAGCUCAACACAGCGUUGCAAAGUGGCUGUGACUAGUCUGCC [G5A G21U G36A A41U] | 0.04
15 | GGCAAAGCUCAACACAGCGUUGCAAAGUGGCUGUGGCAAGACUGCC [G5A G21U U38A] | 0
16 | GGCAAAGCUCAACACAGCGUGACAAAGUGGCUGUGGCUAGUCUUCC [G5A G22A A41U G44U] | 0.12
17 | GGCAAAGCUCAACACAGCGUGAUAAAGUGGCUGGGGCUAGACUGGC [G5A G22A C23U U34G C45G] | 0.03
18 | GGCAAAGCUCAACACAGCGUGCCCAAGUGGCUGUGGCUAGACUGCC [G5A G22C A24C] | 0.04
19 | GGCAAAGCUCAACACAGCGUGCCUAAGUGGCUGUGGCUCAACUGCC [G5A G22C A24U A39C G40A] | 0.02

Row | Variant | self-cleavage
20 | GGCAAAGCUCAACACAGCGUGCCAAAGUGGCUGUGGCUCGACUGCC [G5A G22C A39C] | 0.01
21 | GGCAAAGCUCAACACAGCGUGCAAAAGUGGCUGUGGCUAGACUGCC [G5A G22C C23A] | 0.1
22 | GGCAAAGCUCAACACAGCGUGCCAAAGUGGCUGUAGCUAGACUGCC [G5A G22C G35A] | 0.07
23 | GGCAAAGCUCAACACAGCGUGUCAAAGUAGCUGUGCCUAGACUGCC [G5A G22U G29A G36C] | 0.04
24 | GGCAAAGCUCAACACAGCGUGUCAAAGGAGCUGUGGCUAGACUGCC [G5A G22U U28G G29A] | 0.26
25 | GGCAAAGCUCAACACAGCGUGUCAAAGUGGCUGCGGCUAGGCUGCC [G5A G22U U34C A41G] | 0.02
26 | GGCAAAGCUCAACACAGCGUGGCAAAAUGGCUGUGGCUGGACUGCC [G5A G27A A39G] | 0.03
27 | GGCAAAGCUCAACACAGCGUGGCAAAAUGGUUGUGGCUAGACUUCC [G5A G27A C31U G44U] | 0.03
28 | GGCAAAGCUCAACACAGCGUGGCAAAAUGGUUGUGGCGAGACUGCC [G5A G27A C31U U38G] | 0.01
29 | GGCAAAGCUCAACACAGCGUGGCAAACUGGCUGUGGGUAGACUGGC [G5A G27C C37G C45G] | 0.01
30 | GGCAAAGCUCAACACAGCGUGGCAAACUGACUGUGGCUAGACUGCA [G5A G27C G30A C46A] | 0.05
31 | GGCAAAGCUCAACACAGCGUGGCAAACUGGCUGUGGCUAGACUUCC [G5A G27C G44U] | 0.43
32 | GGCAAAGCUCAACACAGCGUGGCAAACUGGCUGCGGCUAAACUGCC [G5A G27C U34C G40A] | 0.17
33 | GGCAAAGCUCAACACAGCGUGGCAAAUUGGGUGUGGGUAGACUGCC [G5A G27U C31G C37G] | 0.02
34 | GGCAAAGCUCAACACAGCGUGGCAAAUUGGCUGUGGAUAGACAUCC [G5A G27U C37A U43A G44U] | 0.17
35 | GGCAAAGCUCAACACAGCGUGGCAAAUUGUCUGUGGAUAGACUGCC [G5A G27U G30U C37A] | 0.12
36 | GGCAAAGCUCAACACAGCGUGGCAAAUUGGCUUUGGCUAGACUGCG [G5A G27U G33U C46G] | 0.03
37 | GGCAAAGCUCAACACAGCGUGGCAAAUGGGCUGUGGCUAGACUGCC [G5A G27U U28G] | 0.16
38 | GGCAAAGCUCAACACAGCGUGGCAAAGUAGCUGUGUCUAGACUGCC [G5A G29A G36U] | 0.06

Row | Variant | self-cleavage
39 | GGCAAAGCUCAACACAGCGUGGCAAAGUCGCUGUGGCUAGACUCCC [G5A G29C G44C] | 0.03
40 | GGCAAAGCUCAACACAGCGUGGCAAAGUUGUUGUGUCUAGACUGCC [G5A G29U C31U G36U] | 0.06
41 | GGCAAAGCUCAACACAGCGUGGCAAAGUUGCUGUGGAUAGACUGAC [G5A G29U C37A C45A] | 0.03
42 | GGCAAAGCUCAACACAGCGUGGCAAAGUGACUGUGUCUAGAGUGCC [G5A G30A G36U C42G] | 0
43 | GGCAAAGCUCAACACAGCGUGGCAAAGUGACUGUGGCCAGACUGCC [G5A G30A U38C] | 0.15
44 | GGCAAAGCUCAACACAGCGUGGCAAAGUGCCUGUGGCUAGACUGAC [G5A G30C C45A] | 0.04
45 | GGCAAAGCUCAACACAGCGUGGCAAAGUGCCUCUGGCUAGACUGCC [G5A G30C G33C] | 0.04
46 | GGCAAAGCUCAACACAGCGUGGCAAAGUGUCCGUGGCUAGACUGCC [G5A G30U U32C] | 0.03
47 | GGCAAAGCUCAACACAGCGUGGCAAAGUGGCUAUGGCUCGACUGCC [G5A G33A A39C] | 0.08
48 | GGCAAAGCUCAACACAGCGUGGCAAAGUGGCUAUGGCUAGACUGCU [G5A G33A C46U] | 0.07
49 | GGCAAAGCUCAACACAGCGUGGCAAAGUGGCUAUGGCUAACCGGCC [G5A G33A G40A A41C U43G] | 0.08
50 | GGCAAAGCUCAACACAGCGUGGCAAAGUGGCUAUGGCAUGACUGCC [G5A G33A U38A A39U] | 0.05
51 | GGCAAAGCUCAACACAGCGUGGCAAAGUGGCUCUGGCCAGACUGCC [G5A G33C U38C] | 0.05
52 | GGCAAAGCUCAACACAGCGUGGCAAAGUGGCUUUGGCUAGAGUGUC [G5A G33U C42G C45U] | 0
53 | GGCAAAGCUCAACACAGCGUGGCAAAGUGGCUUUUGCUAGACUGCC [G5A G33U G35U] | 0.05
54 | GGCAAAGCUCAACACAGCGUGGCAAAGUGGCUUUGGCUACACUGCC [G5A G33U G40C] | 0.02
55 | GGCAAAGCUCAACACAGCGUGGCAAAGUGGCUGUUGAUAGACUACC [G5A G35U C37A G44A] | 0.11
56 | GGCAAAGCUCAACACAGCGUGGCAAAGUGGCUGUUGUUAGACUGGC [G5A G35U C37U C45G] | 0.04
